Measured values from PubChem BioAssay AID889 (National Center for Advancing Translational Sciences (NCATS), 2007).
The whole screen tested about 75,000 compounds, of which about 15 (0.02%) were called active. This list was built around the results that the source calls inconclusive (neither active nor inactive); the mix of calls is not that of the screen. The call rests on the fitted dose curve; in most records, active means well fitted inhibition curve with a large enough effect in the main read-out, with a control signal flat (not every such curve was filed as active); inconclusive means small, poorly fitted or top-dose-only effect, or a change in a side signal; inactive means flat fitted curve, though single readings scatter. Potencies beside an inconclusive call are fits to weak or partial responses and may not hold up. “Side channel” marks fits to a control or component signal instead of the main read-out.

target: Caspase-7 (Homo sapiens) (UniProt P55210); assay: qHTS Assay for Allosteric/Competitive Inhibitors of Caspase-7; conditions: recombinant caspase-7, Ac-DEVD-AFC fluorescence rate; activity change, negative = inhibition: at 57.5 µM (top of the series) unless noted; on activity change, negative = inhibition: % of control where 0% means no effect
Chain of UniProt P55210 (P55210 whole entry, looked up): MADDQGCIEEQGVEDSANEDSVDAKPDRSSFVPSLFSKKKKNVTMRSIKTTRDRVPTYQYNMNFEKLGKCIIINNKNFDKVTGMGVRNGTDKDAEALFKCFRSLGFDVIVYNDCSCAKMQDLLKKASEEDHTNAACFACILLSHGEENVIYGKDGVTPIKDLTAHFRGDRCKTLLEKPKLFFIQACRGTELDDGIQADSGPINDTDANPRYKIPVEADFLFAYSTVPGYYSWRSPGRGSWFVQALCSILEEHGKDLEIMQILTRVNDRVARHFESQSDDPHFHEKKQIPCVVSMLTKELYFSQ
Potency means the concentration at half of the fitted maximal effect; tags describe the fitted curve by direction and shape or compound fluorescence and quenching.

Row | Structure (SMILES) | Potency | activity change, negative = inhibition
1 | CC(C)Cn1c2nc3ccccc3nc2c2c(=O)n(CCN3CCOCC3)cnc21 | inconclusive: 25.1 µM [fluorescent, side channel, single point] | –
2 | CCn1c(=S)sc2c(=O)n(-c3ccccc3)c(SCC(=O)NCc3ccco3)nc21 | inactive | –
3 | O=c1c2cc(N3CCOCC3)ccc2[nH]c(=S)n1CCCN1CCCCCC1 | inconclusive: 25.1 µM [fluorescent, partial curve] | –
4 | COCCn1c(=O)c(-c2cn(C)c3ccccc23)nc2cnc(Oc3ccc(OC)cc3)nc21 | inconclusive: 12.6 µM [fluorescent, partial curve] | –
5 | CC(C)c1cc(C(=O)Nc2cccc(Cl)c2)no1 | inactive | –
6 | CC(C)OC(=O)CC(=O)CSc1nc2c(cc1C#N)CCC2 | inconclusive: 12.6 µM [inhibitor, partial curve] | –
7 | CC(=O)c1cc2ccccc2oc1=O | inactive | –
8 | N#CCSc1n[nH]c2nc3c(c(=O)n12)C1(CCCC1)Cc1ccccc1-3 | inconclusive: 25.1 µM [fluorescent, partial curve] | –
9 | Cc1ccc2cc(C(c3nnnn3C(C)(C)C)N3CCCCCC3)c(=O)[nH]c2c1 (centres undefined) | inconclusive: 20 µM [fluorescent, partial curve] | –
10 | COCCn1c(=O)c(-c2cccs2)nc2cncnc21 | inconclusive: 12.6 µM [fluorescent, partial curve] | –
11 | COc1cccc(Cn2c(=O)c(-c3cccs3)nc3cnc(OCc4ccccc4)nc32)c1 | inconclusive: 2.51 µM [fluorescent, full curve] | –
12 | CCN1CCc2c(sc3c2c(NCc2ccco2)nc2nnnn23)C1 | inconclusive: 20 µM [fluorescent, side channel, partial curve] | –
13 | CCCn1c(=NC(=O)c2ccncc2)c(C#N)cc2c(=O)n3cccc(C)c3nc21 | inconclusive: 3.16 µM [fluorescent, side channel, full curve] | –
14 | CCCn1nc(NC(=O)c2cccs2)c2cc3cc(OC)ccc3nc21 | inconclusive: 25.1 µM [fluorescent, partial curve] | –
15 | COc1cc2c(cc1OC)C(c1cc3cc(OC)c(OC)cc3[nH]c1=O)N(C(=O)C1CC1)CC2 (centres undefined) | inconclusive: 15.8 µM [fluorescent, side channel, partial curve] | –
16 | O=c1c(-c2cccs2)nc2cnc(N3CCNCC3)nc2n1C1CC1 | inconclusive: 2.51 µM [fluorescent, side channel, partial curve] | –
17 | CCCCNS(=O)(=O)c1ccc2nc(SCC(=O)Nc3sccc3C#N)[nH]c2c1 | inconclusive: 31.6 µM [inhibitor, single point] | –
18 | Cc1ccc(S(=O)(=O)c2cc3c(=O)n4ccccc4nc3n(Cc3ccco3)c2=N)cc1C | inconclusive: 10 µM [fluorescent, side channel, partial curve] | –
19 | OC1CN=C2CCCc3c2n(c2ccc(Cl)cc32)C1 (centres undefined) | inconclusive: 25.1 µM [inhibitor, partial curve] | –

Row | Structure (SMILES) | Potency | activity change, negative = inhibition
20 | CN(C)c1ccc(-c2nc(NC3CCNCC3)c3ccccc3n2)cc1 | inactive | –
21 | Cc1ccc2cc(C#N)c(N3CCCN(C(=O)C4CCCO4)CC3)nc2c1C (centres undefined) | inconclusive: 25.1 µM [fluorescent, partial curve] | –
22 | Cc1ccc2nc3ccc(N4CCN(C)CC4)nn3c(=O)c2c1 | inconclusive: 12.6 µM [inhibitor, partial curve] | –
23 | COc1cc2cc(C(c3nnnn3C(C)(C)C)N3CCc4ccccc4C3)c(=O)[nH]c2cc1OC (centres undefined) | inconclusive: 39.8 µM [fluorescent, side channel, single point] | –
24 | CN(C)C(=O)c1ccc(-c2ccc3ncnc(NCc4cccs4)c3c2)cc1 | inconclusive: 31.6 µM [inhibitor, single point] | –
25 | CN(C)c1ncc2nc(-c3ccc(Cl)cc3)c(=O)n(CCC#N)c2n1 | inconclusive: 1.26 µM [fluorescent, full curve] | –
26 | Cc1ccc(C(=O)/C=C/Nc2ccccc2C(N)=O)o1 | inconclusive: 25.1 µM [fluorescent, partial curve] | –
27 | Cc1sc(NC(=O)c2ccc(Cl)s2)c(C(N)=O)c1C | inconclusive: 39.8 µM [inhibitor, single point] | –
28 | CCNc1ncc2nc(-c3ccc(F)cc3)c(=O)n(CCC#N)c2n1 | inconclusive: 0.501 µM [fluorescent, full curve] | –
29 | COc1cccc2cc(-c3nc(-c4cccs4)cs3)c(=O)oc12 | inconclusive: 7.94 µM [fluorescent, partial curve] | –
30 | N=c1c(S(=O)(=O)c2ccc(Cl)cc2)cc2c(=O)n3ccccc3nc2n1CCN1CCOCC1 | inconclusive: 7.94 µM [fluorescent, side channel, partial curve] | –
31 | O=c1[nH]c2cc3c(cc2cc1CN(Cc1nnnn1CC1CCCO1)C1CCCCC1)OCO3 (centres undefined) | inconclusive: 3.98 µM [fluorescent, side channel, full curve] | –
32 | Cc1nc(SCC(=O)NCc2ccco2)c2c(C)c(C)sc2n1 | inactive | –
33 | N#Cc1cc2c(=O)n3ccccc3nc2n(CCCN2CCOCC2)c1=O | inconclusive: 15.8 µM [fluorescent, side channel, partial curve] | –
34 | CCOCCCn1c(=NC(=O)c2cccnc2)c(C(=O)OCC)cc2c(=O)n3ccccc3nc21 | inconclusive: 12.6 µM [fluorescent, side channel, partial curve] | –
35 | CN(C)Cc1ccccc1-c1cc(NCc2ccccc2)ncn1 | inconclusive: 39.8 µM [fluorescent, side channel, single point] | –
36 | COc1ccccc1N1CCN(C(=O)c2ccc3nc(-c4ccco4)c(-c4ccco4)nc3c2)CC1 | inconclusive: 31.6 µM [fluorescent, side channel, single point] | –
37 | COc1ccc(OC)c(NC2c3ccccc3C(=O)N2Cc2ccc3c(c2)OCO3)c1 (centres undefined) | inactive | –
38 | CC(C)=CCc1c2c(c3occ(-c4ccc(O)c(O)c4)c(=O)c3c1O)C=CC(C)(C)O2 | inconclusive: 39.8 µM [inhibitor, single point] | inactive: -3.23% [at 11.5 µM]
